# Measured values published in the supplement of paper PMC8728848.
# The other results are listed elsewhere or left out.
# B1: MpL2 (Macrolepiota procera) (protein)
# chain: MSTQVSSGQTYKITNVKAGTVIDLSGEDNKSIIGYPYHSGKNQQWTFNWTGKAWTLRSASSGSYLGIEGTPADGTRLVAVNDPFEWHIWRDEANENAFRIFVPFTNYNLRLSGYGDTTPGTPVQLWWTWEGLHQTWTIDRP
# Columns and labels:
# Experiment in all cases: glycan array binding signal (z-score within array); higher = stronger binding
# Settings in all cases: glycan notation: IUPAC condensed, linker removed; mutation: D109R
# [1] = molecular target: Neu5Ac(a2-3)Gal(b1-3)GlcNAc(b1-6)GalNAc
# Procedure, shortened: (§1)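 Glycan array data came from 3228 arrays in the Consortium for Functional Glycomics database, and only arrays with an available protein sequence were kept. Glycan names were put into IUPAC-condensed notation, and columns mapping to the same glycan were averaged. The binding signal is a within-array Z-score, averaged across arrays of one protein sequence run at different concentrations or buffers and across linkers. A negative Z-score can be read as non-binding.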
# [2] = molecular target: Neu5Ac(a2-3)Gal(b1-3)GlcNAc6S
# Procedure, shortened: as §1
# [3] = molecular target: Neu5Ac(a2-3)Gal(b1-3)[Fuc(a1-4)]GlcNAc
# Procedure, shortened: as §1
# [4] = molecular target: Neu5Ac(a2-3)Gal(b1-3)[Fuc(a1-4)]GlcNAc(b1-3)Gal(b1-3)[Fuc(a1-4)]GlcNAc
# Procedure, shortened: as §1
# [5] = molecular target: Neu5Ac(a2-3)Gal(b1-3)[Fuc(a1-4)]GlcNAc(b1-3)Gal(b1-4)[Fuc(a1-3)]GlcNAc
# Procedure, shortened: as §1
# [6] = molecular target: Neu5Ac(a2-3)Gal(b1-3)[GlcNAc(b1-6)]GalNAc
# Procedure, shortened: as §1
# [7] = molecular target: Neu5Ac(a2-3)Gal(b1-3)[Neu5Ac(a2-6)]GalNAc
# Procedure, shortened: as §1
# [8] = molecular target: Neu5Ac(a2-3)Gal(b1-3)[Neu5Ac(a2-6)]GlcNAc(b1-3)[Fuc(a1-3)[Gal(b1-4)]GlcNAc(b1-6)]Gal(b1-4)Glc
# Procedure, shortened: as §1
# [9] = molecular target: Neu5Ac(a2-3)Gal(b1-3)]Neu5Ac(a2-3)Gal(b1-4)]GlcNAc
# Procedure, shortened: as §1
# [10] = molecular target: Neu5Ac(a2-3)Gal(b1-4)Glc
# Procedure, shortened: as §1
# [11] = molecular target: Neu5Ac(a2-3)Gal(b1-4)GlcNAc
# Procedure, shortened: as §1
# [12] = molecular target: Neu5Ac(a2-3)Gal(b1-4)GlcNAc(b1-2)Man
# Procedure, shortened: as §1
# [13] = molecular target: Neu5Ac(a2-3)Gal(b1-4)GlcNAc(b1-2)Man(a1-3)[GlcNAc(b1-4)][Neu5Ac(a2-3)Gal(b1-4)GlcNAc(b1-2)Man(a1-6)]Man(b1-4)GlcNAc(b1-4)GlcNAc
# Procedure, shortened: as §1
# [14] = molecular target: Neu5Ac(a2-3)Gal(b1-4)GlcNAc(b1-2)Man(a1-3)[Neu5Ac(a2-3)Gal(b1-4)GlcNAc(b1-2)Man(a1-6)]Man(b1-4)GlcNAc(b1-4)GlcNAc
# Procedure, shortened: as §1
# [15] = molecular target: Neu5Ac(a2-3)Gal(b1-4)GlcNAc(b1-2)Man(a1-3)[Neu5Ac(a2-3)Gal(b1-4)GlcNAc(b1-2)Man(a1-6)]Man(b1-4)GlcNAc(b1-4)[Fuc(a1-6)]GlcNAc
# Procedure, shortened: as §1
# [16] = molecular target: Neu5Ac(a2-3)Gal(b1-4)GlcNAc(b1-2)Man(a1-3)[Neu5Ac(a2-6)Gal(b1-4)GlcNAc(b1-2)Man(a1-6)]Man(b1-4)GlcNAc(b1-4)GlcNAc
# Procedure, shortened: as §1
# [17] = molecular target: Neu5Ac(a2-3)Gal(b1-4)GlcNAc(b1-2)[Neu5Ac(a2-3)Gal(b1-4)GlcNAc(b1-4)]Man(a1-3)[GlcNAc(b1-4)][Neu5Ac(a2-3)Gal(b1-4)GlcNAc(b1-2)[Neu5Ac(a2-3)Gal(b1-4)GlcNAc(b1-6)]Man(a1-6)]Man(b1-4)GlcNAc(b1-4)GlcNAc
# Procedure, shortened: as §1
# [18] = molecular target: Neu5Ac(a2-3)Gal(b1-4)GlcNAc(b1-2)[Neu5Ac(a2-3)Gal(b1-4)GlcNAc(b1-4)]Man(a1-3)[GlcNAc(b1-4)][Neu5Ac(a2-3)Gal(b1-4)GlcNAc(b1-4)Man(a1-6)]Man(b1-4)GlcNAc(b1-4)GlcNAc
# Procedure, shortened: as §1
# [19] = molecular target: Neu5Ac(a2-3)Gal(b1-4)GlcNAc(b1-2)[Neu5Ac(a2-3)Gal(b1-4)GlcNAc(b1-6)]Man(a1-6)[Neu5Ac(a2-3)Gal(b1-4)GlcNAc(b1-2)Man(a1-3)][GlcNAc(b1-4)]Man(b1-4)GlcNAc(b1-4)GlcNAc
# Procedure, shortened: as §1
# [20] = molecular target: Neu5Ac(a2-3)Gal(b1-4)GlcNAc(b1-3)Gal
# Procedure, shortened: as §1
# [21] = molecular target: Neu5Ac(a2-3)Gal(b1-4)GlcNAc(b1-3)Gal(b1-3)GlcNAc
# Procedure, shortened: as §1
# [22] = molecular target: Neu5Ac(a2-3)Gal(b1-4)GlcNAc(b1-3)Gal(b1-4)GlcNAc
# Procedure, shortened: as §1
# [23] = molecular target: Neu5Ac(a2-3)Gal(b1-4)GlcNAc(b1-3)Gal(b1-4)GlcNAc(b1-2)Man(a1-3)[Neu5Ac(a2-3)Gal(b1-4)GlcNAc(b1-3)Gal(b1-4)GlcNAc(b1-2)Man(a1-6)]Man(b1-4)GlcNAc(b1-4)GlcNAc
# Procedure, shortened: as §1
# [24] = molecular target: Neu5Ac(a2-3)Gal(b1-4)GlcNAc(b1-3)Gal(b1-4)GlcNAc(b1-3)Gal(b1-4)GlcNAc
# Procedure, shortened: as §1
# [25] = molecular target: Neu5Ac(a2-3)Gal(b1-4)GlcNAc(b1-3)Gal(b1-4)GlcNAc(b1-3)Gal(b1-4)GlcNAc(b1-2)Man(a1-3)[Neu5Ac(a2-3)Gal(b1-4)GlcNAc(b1-3)Gal(b1-4)GlcNAc(b1-3)Gal(b1-4)GlcNAc(b1-2)Man(a1-6)]GalNAc
# Procedure, shortened: as §1
# [26] = molecular target: Neu5Ac(a2-3)Gal(b1-4)GlcNAc(b1-3)Gal(b1-4)GlcNAc(b1-3)GalNAc
# Procedure, shortened: as §1
# [27] = molecular target: Neu5Ac(a2-3)Gal(b1-4)GlcNAc(b1-3)Gal(b1-4)GlcNAc(b1-3)[Neu5Ac(a2-3)Gal(b1-4)GlcNAc(b1-3)Gal(b1-4)GlcNAc(b1-6)]GalNAc
# Procedure, shortened: as §1
# [28] = molecular target: Neu5Ac(a2-3)Gal(b1-4)GlcNAc(b1-3)Gal(b1-4)GlcNAc(b1-6)[Gal(b1-3)]GalNAc
# Procedure, shortened: as §1
# [29] = molecular target: Neu5Ac(a2-3)Gal(b1-4)GlcNAc(b1-3)Gal(b1-4)[Fuc(a1-3)]GlcNAc
# Procedure, shortened: as §1
# [30] = molecular target: Neu5Ac(a2-3)Gal(b1-4)GlcNAc(b1-3)GalNAc
# Procedure, shortened: as §1
binder,measurement,setting,value
B1,glycan array binding signal (z-score),[1],-0.243
same,glycan array binding signal (z-score),[2],-0.217
same,glycan array binding signal (z-score),[3],-0.249
same,glycan array binding signal (z-score),[4],-0.271
same,glycan array binding signal (z-score),[5],-0.251
same,glycan array binding signal (z-score),[6],-0.286
same,glycan array binding signal (z-score),[7],-0.276
same,glycan array binding signal (z-score),[8],-0.229
same,glycan array binding signal (z-score),[9],-0.263
same,glycan array binding signal (z-score),[10],-0.242
same,glycan array binding signal (z-score),[11],-0.348
same,glycan array binding signal (z-score),[12],-0.23
same,glycan array binding signal (z-score),[13],-0.261
same,glycan array binding signal (z-score),[14],-0.278
same,glycan array binding signal (z-score),[15],-0.215
same,glycan array binding signal (z-score),[16],-0.266
same,glycan array binding signal (z-score),[17],-0.282
same,glycan array binding signal (z-score),[18],-0.282
same,glycan array binding signal (z-score),[19],-0.302
same,glycan array binding signal (z-score),[20],-0.29
same,glycan array binding signal (z-score),[21],-0.262
same,glycan array binding signal (z-score),[22],-0.251
same,glycan array binding signal (z-score),[23],-0.117
same,glycan array binding signal (z-score),[24],-0.31
same,glycan array binding signal (z-score),[25],-0.078
same,glycan array binding signal (z-score),[26],-0.242
same,glycan array binding signal (z-score),[27],-0.178
same,glycan array binding signal (z-score),[28],-0.24
same,glycan array binding signal (z-score),[29],-0.257
same,glycan array binding signal (z-score),[30],-0.273
